Experimental data taken from US11130781B2, “Antimicrobial peptides and their use” (UNIVERSITEIT UTRECHT HOLDING B.V., priority 2017, dated 2021).
At least one peptide structure holds a part that was inferred or is arguable (an end, a ring closure or a residue). Where no end group is shown, it is not given here.

Each substance was assayed on Aspergillus fumigatus (assay: Antifungal activity, metabolic activity (resazurin) of fungal spores). Settings: Aspergillus fumigatus spores; peptide dilutions 2-5 μM; resazurin conversion.

Substance	Antifungal activity (reduction in metabolic activity of fungal spores)
APKAMRRWVQRWIRRWRPKVLLHYPSQKF-NH2 [SEQ ID NO: 23]	++ (25-50%)
RRWVRRWIRRWRPKV-NH2 [SEQ ID NO: 25, RRWVRRWIRRWRPKV]	0
RRWVQRWIRRWRPK-NH2 [SEQ ID NO: 8, RRWVQRWIRRWRPK]	0
APKAMRRWVQRWIRRWRPKVLQKNNYL-NH2 [SEQ ID NO: 21]	++++ (75-100%)
RRWVQRWIRRWRPKW-NH2 [SEQ ID NO: 9, RRWVQRWIRRWRPKW]	0
APKAMRRWVQRWIRRWRPKVFQVTGSSA-NH2 [SEQ ID NO: 22]	+++ (50-75%)
APKAMRRWVQRWIRRWRPLQKKGI-NH2 [SEQ ID NO: 20]	+++ (50-75%)
APKAMRRWVQRWIRRWRPKVLQKKGI-NH2 [SEQ ID NO: 18]	++ (25-50%)

The substances below were run on Staphylococcus aureus (assay: Killing assay (colony count)). Settings: Bronchial Epithelial Cell Medium; peptide 5 μM; 3 h.

Substance	Antibacterial activity Staphylococcus aureus BEPC
APKAMRRWVQRWIRRWRPKVLLHYPSQKF-NH2 [SEQ ID NO: 23]	++ (100-1.000 fold)
RRWVRRWIRRWRPKV-NH2 [SEQ ID NO: 25, RRWVRRWIRRWRPKV]	+++ (1.000-100.000 fold)
RRWVQRWIRRWRPK-NH2 [SEQ ID NO: 8, RRWVQRWIRRWRPK]	+ (0-100 fold reduction in Colony Forming Units(CFU's) after treatment)
APKAMRRWVQRWIRRWRPKVLQKNNYL-NH2 [SEQ ID NO: 21]	++++
RRWVQRWIRRWRPKW-NH2 [SEQ ID NO: 9, RRWVQRWIRRWRPKW]	+++ (1.000-100.000 fold)
APKAMRRWVQRWIRRWRPKVFQVTGSSA-NH2 [SEQ ID NO: 22]	++++
APKAMRRWVQRWIRRWRPLQKKGI-NH2 [SEQ ID NO: 20]	++++
APKAMRRWVQRWIRRWRPKVLQKKGI-NH2 [SEQ ID NO: 18]	++++

Same assay, conditions: MHB medium; peptide 5 μM; 3 h at 37° C.

Substance	Killing efficacy, Staphylococcus aureus
APKAMRRWVQRWIRRWRPKVLLHYPSQKF-NH2 [SEQ ID NO: 23]	+++ (1.000-100.000 fold)
RRWVRRWIRRWRPKV-NH2 [SEQ ID NO: 25, RRWVRRWIRRWRPKV]	++ (100-1.000 fold)
RRWVQRWIRRWRPK-NH2 [SEQ ID NO: 8, RRWVQRWIRRWRPK]	+ (0-100 fold reduction in Colony Forming Units (CFU's) after treatment)
APKAMRRWVQRWIRRWRPKVLQKNNYL-NH2 [SEQ ID NO: 21]	+ (0-100 fold reduction in Colony Forming Units (CFU's) after treatment)
RRWVQRWIRRWRPKW-NH2 [SEQ ID NO: 9, RRWVQRWIRRWRPKW]	++ (100-1.000 fold)
APKAMRRWVQRWIRRWRPKVFQVTGSSA-NH2 [SEQ ID NO: 22]	0
APKAMRRWVQRWIRRWRPLQKKGI-NH2 [SEQ ID NO: 20]	+ (0-100 fold reduction in Colony Forming Units (CFU's) after treatment)
APKAMRRWVQRWIRRWRPKVLQKKGI-NH2 [SEQ ID NO: 18]	+ (0-100 fold reduction in Colony Forming Units (CFU's) after treatment)

Same assay, conditions: MHB+0.9% NaCl pH 6.5; peptide 5 μM; 3 h

Substance	Antibacterial activity Staphylococcus aureus NaCl 6.5
APKAMRRWVQRWIRRWRPKVLLHYPSQKF-NH2 [SEQ ID NO: 23]	0
RRWVRRWIRRWRPKV-NH2 [SEQ ID NO: 25, RRWVRRWIRRWRPKV]	0
RRWVQRWIRRWRPK-NH2 [SEQ ID NO: 8, RRWVQRWIRRWRPK]	0
APKAMRRWVQRWIRRWRPKVLQKNNYL-NH2 [SEQ ID NO: 21]	0
RRWVQRWIRRWRPKW-NH2 [SEQ ID NO: 9, RRWVQRWIRRWRPKW]	0
APKAMRRWVQRWIRRWRPKVFQVTGSSA-NH2 [SEQ ID NO: 22]	0
APKAMRRWVQRWIRRWRPLQKKGI-NH2 [SEQ ID NO: 20]	0
APKAMRRWVQRWIRRWRPKVLQKKGI-NH2 [SEQ ID NO: 18]	0

Same assay, conditions: MHB+0.9% NaCl pH 7.4; peptide 5 μM; 3 h

Substance	Antibacterial activity Staphylococcus aureus NaCl 7.4
APKAMRRWVQRWIRRWRPKVLLHYPSQKF-NH2 [SEQ ID NO: 23]	+ (0-100 fold reduction in Colony Forming Units(CFU's) after treatment)
RRWVRRWIRRWRPKV-NH2 [SEQ ID NO: 25, RRWVRRWIRRWRPKV]	0
RRWVQRWIRRWRPK-NH2 [SEQ ID NO: 8, RRWVQRWIRRWRPK]	0
APKAMRRWVQRWIRRWRPKVLQKNNYL-NH2 [SEQ ID NO: 21]	0
RRWVQRWIRRWRPKW-NH2 [SEQ ID NO: 9, RRWVQRWIRRWRPKW]	0
APKAMRRWVQRWIRRWRPKVFQVTGSSA-NH2 [SEQ ID NO: 22]	0
APKAMRRWVQRWIRRWRPLQKKGI-NH2 [SEQ ID NO: 20]	0
APKAMRRWVQRWIRRWRPKVLQKKGI-NH2 [SEQ ID NO: 18]	0

Each substance was assayed on Pseudomonas aeruginosa (assay: Killing assay (colony count)). Settings: Bronchial Epithelial Cell Medium; peptide 5 μM; 3 h.

Substance	Antibacterial activity Pseudomonas aeruginosa BEPC
APKAMRRWVQRWIRRWRPKVLLHYPSQKF-NH2 [SEQ ID NO: 23]	++++
RRWVRRWIRRWRPKV-NH2 [SEQ ID NO: 25, RRWVRRWIRRWRPKV]	+ (0-100 fold reduction in Colony Forming Units(CFU's) after treatment)
RRWVQRWIRRWRPK-NH2 [SEQ ID NO: 8, RRWVQRWIRRWRPK]	+ (0-100 fold reduction in Colony Forming Units(CFU's) after treatment)
APKAMRRWVQRWIRRWRPKVLQKNNYL-NH2 [SEQ ID NO: 21]	++++
RRWVQRWIRRWRPKW-NH2 [SEQ ID NO: 9, RRWVQRWIRRWRPKW]	+ (0-100 fold reduction in Colony Forming Units(CFU's) after treatment)
APKAMRRWVQRWIRRWRPKVFQVTGSSA-NH2 [SEQ ID NO: 22]	++++
APKAMRRWVQRWIRRWRPLQKKGI-NH2 [SEQ ID NO: 20]	++++
APKAMRRWVQRWIRRWRPKVLQKKGI-NH2 [SEQ ID NO: 18]	++++

Same assay, conditions: MHB medium; peptide 5 μM; 3 h at 37° C.

Substance	Killing efficacy, Pseudomonas aeruginosa
APKAMRRWVQRWIRRWRPKVLLHYPSQKF-NH2 [SEQ ID NO: 23]	++++
RRWVRRWIRRWRPKV-NH2 [SEQ ID NO: 25, RRWVRRWIRRWRPKV]	++++
RRWVQRWIRRWRPK-NH2 [SEQ ID NO: 8, RRWVQRWIRRWRPK]	++++
APKAMRRWVQRWIRRWRPKVLQKNNYL-NH2 [SEQ ID NO: 21]	++++
RRWVQRWIRRWRPKW-NH2 [SEQ ID NO: 9, RRWVQRWIRRWRPKW]	++++
APKAMRRWVQRWIRRWRPKVFQVTGSSA-NH2 [SEQ ID NO: 22]	++++
APKAMRRWVQRWIRRWRPLQKKGI-NH2 [SEQ ID NO: 20]	++++
APKAMRRWVQRWIRRWRPKVLQKKGI-NH2 [SEQ ID NO: 18]	++++

Same assay, conditions: MHB+0.9% NaCl pH 6.5; peptide 5 μM; 3 h

Substance	Antibacterial activity Pseudomonas aeruginosa NaCl 6.5
APKAMRRWVQRWIRRWRPKVLLHYPSQKF-NH2 [SEQ ID NO: 23]	++ (100-1.000 fold)
RRWVRRWIRRWRPKV-NH2 [SEQ ID NO: 25, RRWVRRWIRRWRPKV]	0
RRWVQRWIRRWRPK-NH2 [SEQ ID NO: 8, RRWVQRWIRRWRPK]	0
APKAMRRWVQRWIRRWRPKVLQKNNYL-NH2 [SEQ ID NO: 21]	++ (100-1.000 fold)
RRWVQRWIRRWRPKW-NH2 [SEQ ID NO: 9, RRWVQRWIRRWRPKW]	0
APKAMRRWVQRWIRRWRPKVFQVTGSSA-NH2 [SEQ ID NO: 22]	0
APKAMRRWVQRWIRRWRPLQKKGI-NH2 [SEQ ID NO: 20]	+ (0-100 fold reduction in Colony Forming Units(CFU's) after treatment)
APKAMRRWVQRWIRRWRPKVLQKKGI-NH2 [SEQ ID NO: 18]	+ (0-100 fold reduction in Colony Forming Units(CFU's) after treatment)

Same assay, conditions: MHB+0.9% NaCl pH 7.4; peptide 5 μM; 3 h

Substance	Antibacterial activity Pseudomonas aeruginosa NaCl 7.4
APKAMRRWVQRWIRRWRPKVLLHYPSQKF-NH2 [SEQ ID NO: 23]	++++
RRWVRRWIRRWRPKV-NH2 [SEQ ID NO: 25, RRWVRRWIRRWRPKV]	+ (0-100 fold reduction in Colony Forming Units(CFU's) after treatment)
RRWVQRWIRRWRPK-NH2 [SEQ ID NO: 8, RRWVQRWIRRWRPK]	+ (0-100 fold reduction in Colony Forming Units(CFU's) after treatment)
APKAMRRWVQRWIRRWRPKVLQKNNYL-NH2 [SEQ ID NO: 21]	+++ (1.000-100.000 fold)
RRWVQRWIRRWRPKW-NH2 [SEQ ID NO: 9, RRWVQRWIRRWRPKW]	+ (0-100 fold reduction in Colony Forming Units(CFU's) after treatment)
APKAMRRWVQRWIRRWRPKVFQVTGSSA-NH2 [SEQ ID NO: 22]	++ (100-1.000 fold)
APKAMRRWVQRWIRRWRPLQKKGI-NH2 [SEQ ID NO: 20]	+ (0-100 fold reduction in Colony Forming Units(CFU's) after treatment)
APKAMRRWVQRWIRRWRPKVLQKKGI-NH2 [SEQ ID NO: 18]	+++ (1.000-100.000 fold)
